Assay results taken from ChEMBL document CHEMBL1201862, “PubChem BioAssay data set” (2004).
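In this assay, cells in 96-well plates receive the compound at five concentrations for 48 hours. Endpoints are linearly interpolated between the surrounding concentrations. GI50 is the concentration that inhibits growth by half.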 The source made the active and inactive calls. Rule as the data show it: active = GI50 up to about 1.1 µM and inactive = higher.

These compounds were tested on NCI-H322M (assay: DTP human tumour cell line panel, 48 h).
With c1ccc2[nH]c3nc4ccccc4c-3cc2c1 the GI50 was active: 0.244 µM.
Fc1cccc(Cl)c1/C=N\N=C1c2ccccc2-c2ccccc21 was tested, and the GI50 was inactive: > 100 µM.
With COc1ccc(/C=C2/CSC/C(=C/c3ccc(OC)c(OC)c3)C2=O)cc1OC the GI50 was inactive: 5.56 µM.
In the case of Cc1nc2ccccc2c(=O)n1NC(=O)c1ccccc1O, the GI50 is reported as inactive: > 100 µM.
For CCOC1OC(=O)c2cc3ccc4c(c3c(-c3ccc5c(c3)OCO5)c21)OCO4 (stereo not drawn), the GI50 was inactive: 3.95 µM.
For O=c1c2ccccc2nc(Cc2nc(-c3ccc(Cl)cc3)cs2)n1-c1ccc(Cl)cc1, the GI50 was inactive: 84.9 µM.
For c1ccc2c(c1)N=C(c1ccc3ccccc3c1)CC(c1cccc3ccccc13)S2 (stereo not drawn), the GI50 was inactive: 65.6 µM.
For CC1NOC(=O)C1/N=N/c1ccccc1Cl (stereo not drawn), the GI50 was inactive: > 100 µM.
For CC1=C2C3=C(C)C(=O)C(C)(C)CC[C@@]3(C)[C@]2(C)CCC(C)(C)C1=O, the GI50 was inactive: > 100 µM.
For Sc1nnc(/C=C/c2ccc(Cl)c(Cl)c2)[nH]1, the GI50 was inactive: > 100 µM.
In the case of COc1ccc(C(=O)O)c(Br)c1OCc1ccccc1, the GI50 is reported as inactive: 95.7 µM.
For O=C(NNc1nc(-c2ccccc2)cs1)C(F)(F)F, the GI50 was inactive: 62.7 µM.
With Cc1cn(C2CC(OC(c3ccccc3)(c3ccccc3)c3ccccc3)C(COC(c3ccccc3)(c3ccccc3)c3ccccc3)O2)c(=O)[nH]c1=O (stereo not drawn) the GI50 was inactive: 38.2 µM.
With N=C(N)SCCON1C(=O)c2ccccc2C1=O the GI50 was inactive: > 100 µM.
For CC(C)(C)CC(C)(C)NC(=S)NO, the GI50 was inactive: > 100 µM.
With O=C(CCl)N1CCN(c2ccccn2)CC1 the GI50 was inactive: 21.6 µM.
In the case of COC(=O)c1ccccc1NC(=S)NN(C)C, the GI50 is reported as inactive: > 100 µM.
For O=C(Nc1ccn(CCI)c(=O)n1)c1ccccc1, the GI50 was inactive: > 100 µM.
Nc1ccccc1Sc1ccc(Cl)cc1 was tested, and the GI50 was inactive: 37.5 µM.
NC(=S)N/N=C1/CCCC2CCCC[C@@H]12 (stereo partly drawn) was tested, and the GI50 was inactive: > 100 µM.
COc1ccc2nc3cc(Cl)ccc3c(NCCCN(C)CCCNc3ccc4ncn5c6ccccc6c(=O)c3c45)c2c1 was tested, and the GI50 was active: 1.02 µM.
CC(C)(Br)C(Br)CCC1(C2CO2)CO1 (stereo not drawn) was tested, and the GI50 was inactive: > 5 µM.
In the case of O=C(CC1C(=O)Nc2ccccc2[S+]1[O-])Nc1cccc(Cl)c1 (stereo not drawn), the GI50 is reported as inactive: > 51.3 µM.
In the case of Nc1nc2c(ncn2C2OC(CO)C(O)C2N)c(=O)[nH]1 (stereo not drawn), the GI50 is reported as inactive: > 100 µM.
With COc1ccc(CCNCCCC2c3ccccc3-c3ccccc32)cc1OC the GI50 was inactive: 12.7 µM.
For COC(=O)C(Cc1c[nH]c2ccccc12)NP(=O)(O)OCC1OC(n2cc(Br)c(=O)[nH]c2=O)CC1O (stereo not drawn), the GI50 was inactive: > 100 µM.
CSC(=N)N1N=C2/C(=C/c3ccccc3)CCC[C@H]2[C@H]1c1ccccc1 was tested, and the GI50 was inactive: 3.54 µM.
For OCC1C2CCC3(OCCO3)C12 (stereo not drawn), the GI50 was inactive: > 100 µM.
In the case of S=C(/C=C1\SC(=N\c2ccccc2)/C(=N/c2ccccc2)N1c1ccccc1)Nc1ccccc1, the GI50 is reported as inactive: > 100 µM.
In the case of Cc1ccccc1/N=N/C(C(=O)c1ccccc1)C(=O)c1ccccc1, the GI50 is reported as inactive: 32.2 µM.
In the case of CC(=O)NC1C(OCc2ccccc2)OC(CO)C(O)C1OCC(=O)N[C@@H](C)C(=O)N[C@H](CCC(=O)NCCCNc1ccc([N+](=O)[O-])c2[nH]c3ccccc3c(=O)c12)C(N)=O (stereo partly drawn), the GI50 is reported as inactive: 45.6 µM.
For O=[PH](O)c1cccnc1, the GI50 was inactive: > 100 µM.
CNC(=S)/N=c1/sc(NC)nc2sc3c(c12)CCCC3 was tested, and the GI50 was inactive: > 100 µM.
Cc1ccc(-n2nc(C(OC3OC(CO)C(O)C(O)C3O)C(O)CO)c3nc4cc(C)c(C)cc4nc32)cc1 (stereo not drawn) was tested, and the GI50 was inactive: > 100 µM.
N=C(N)N/N=C(/CC1OC(=O)c2ccccc21)c1ccc2ccccc2c1 (stereo not drawn) was tested, and the GI50 was inactive: 18.9 µM.
For C[C@@H]1C(=O)CC2(O)[C@@]13C[C@@H](OC(=O)[C@@H]3O)[C@@H](C)[C@@]21COC1=O (stereo partly drawn), the GI50 was inactive: > 100 µM.
In the case of COc1nc(C#CC2(O)CCCCC2)nc(OC)n1, the GI50 is reported as inactive: 15.4 µM.
For COc1cc2c(cc1OCCCN1CCN(C)CC1)N=C[C@@H]1CCCN1C2=O, the GI50 was inactive: 3.92 µM.
